Reference: the supplement of paper PMC3334620
Over roughly 33,000 sequences, “E-score (-0.5 to 0.5)” has its median near -0.017; the highest 2% begin near 0.3. The list shows a part of the results.

target: T1, Sut1 (UniProt P53032); assay: PBM E-score (8-mer binding enrichment) (E-score (-0.5 to 0.5)); higher = stronger / more preferred TF binding; most listed sequences are background and not binding sites; settings: protein concentration: 200 nM; construct: GST-full length
T1 sequence: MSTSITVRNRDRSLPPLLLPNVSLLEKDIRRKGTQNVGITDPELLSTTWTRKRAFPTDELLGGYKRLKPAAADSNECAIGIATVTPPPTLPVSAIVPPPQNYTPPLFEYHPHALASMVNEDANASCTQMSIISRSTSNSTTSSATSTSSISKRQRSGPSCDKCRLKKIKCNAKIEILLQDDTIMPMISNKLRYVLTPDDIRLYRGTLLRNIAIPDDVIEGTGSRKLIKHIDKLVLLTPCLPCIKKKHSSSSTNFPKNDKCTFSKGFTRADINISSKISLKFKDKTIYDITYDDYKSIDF
Summary of the method: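 GST-tagged yeast TFs (full-length or DNA-binding domain) were made by PURExpress in vitro transcription/translation and applied at about 100-200 nM to universal all-10-mer Agilent arrays. The arrays were made double-stranded by primer extension, on fresh or once-stripped slides. Bound protein was detected with fluorescent anti-GST, and scans were normalised with masliner. Each ungapped eight-base word, pooled with its reverse complement, received an E-score (modified Wilcoxon-Mann-Whitney statistic) from the Universal PBM Analysis Suite.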

Sequence | PBM E-score
CCTAGCAA | -0.172
ACGTGACT | -0.0877
TGGTTCAA | 0.00093
CCTCGCTC | -0.044
GACACGAC | -0.126
GATTCATA | 0.0408
CAAAGAGG | -0.109
CTAGGAGC | -0.306
CAATAGCC | -0.0517
AATCGACT | -0.205
GAGTTGCA | 0.032
CTCGAATA | -0.124
ATGCACCG | 0.0411
AAAGAATT | 0.12
CCGCACAA | -0.0899
AATCGTAG | 0.111
CGTCCCAC | -0.0159
ACACGCGC | -0.069
CTAAGGCA | -0.163
AAGGTAGA | 0.059
AGATTTAA | 0.00422
GTTGACAA | 0.0577
CTGCCCAA | -0.108
CACAGGTG | -0.162
AACTACCC | -0.211

Sequence | PBM E-score
ATACGTGC | -0.0324
TACAAGAA | 0.234
GTAAGCAC | -0.0334
CCGGGCTA | 0.0831
CTAGTCAC | -0.0858
CAGTGACC | -0.31
CCTGCAAA | -0.172
GCTACTGA | -0.00365
GAAAGAAA | 0.294
GTAGGGTA | 0.0553
AACGGTAA | -0.0227
ACTCCCGA | 0.103
GTCCAGAC | -0.365
AGCTATCA | -0.0476
AGTCTACG | -0.0914
CAGGGTAG | -0.233
AGCAACAC | -0.00322
GGTCCACC | -0.175
AGCAAAAC | 0.219
AATGATGC | 0.0894
AATCAGTG | -0.0732
AGTTTGGG | 0.129
AGCGGATC | 0.0459
ATTGACGG | 0.103
CGGTAGAA | -0.197

Sequence | PBM E-score
AACGTGAC | 0.0748
CGGATTGA | 0.0523
CCGTTAAG | -0.0615
TGCAATAA | 0.124
GATCAGCC | -0.25
AAATTATG | 0.175
CATGTCCC | -0.1
CGCATCTA | 0.108
ACCCGCTA | -0.21
CGACACCC | -0.0331
ATTCTGTA | 0.114
AGAAGTAA | 0.236
CTGCCATC | -0.0539
AAGTGGTC | 0.00377
GAGGTACC | -0.211
ACCTGGGA | -0.057
CAGTTTAA | 0.13
ATACTTAA | 0.188
TAATTCGA | 0.0785
AATGCAAC | 0.0416
CTTTTGGC | -0.0214
ATTTCAGC | 0.137
CTGACATC | 0.0186
ACATTAGT | -0.0431
GTAAGCAA | 0.111

Sequence | PBM E-score
CCGCAGTA | -0.0898
AATACTTA | 0.185
TACGAGGA | -0.0191
AGCTTTTC | 0.076
AGAGGTCG | -0.0834
CTCGAGTA | -0.0175
AGGTTACG | -0.0332
CTTGTAAC | 0.0858
GGCGCGCA | -0.0973
TCCTGCGA | -0.108
ATGCTTTA | -0.0185
CGGAGGTA | 0.0546
GTCATCGA | -0.126
TCCGTCGA | 0.269
CTCCTCAG | -0.122
CTTCCAGC | -0.209
TCGAAACA | 0.114
ACCACCAG | -0.0837
GCCCTTAC | -0.117
CTATAAGA | 0.0645
GCGGGCAC | -0.0559
ACTCGAGA | -0.063
CAGGGGCC | -0.381
GTAGACAC | 0.0727
ACCGATGC | 0.03

Sequence | PBM E-score
CAAGAGCG | -0.079
CCTGGGGA | -0.333
ATGACTAA | 0.0921
GAATGCGC | 0.116
CGGTGTGA | -0.00548
ATTGCCAA | -0.0503
ATATGATC | 0.0896
AGAGCGGC | -0.125
GCCAAAGA | 0.0153
GTGAAGCA | -0.123
ACAGGCAA | -0.0187
GACGGGTA | -0.25
CATAGGGC | -0.253
CATTCAGG | -0.122
AATGTGGA | 0.0742
ACCAAGAT | 0.0833
AGTGAAGG | -0.0451
ACCGTATG | -0.0163
CCACCAAA | -0.0079
GGGCCGAC | -0.0906
CCCATTAC | -0.173
GCTGCTAC | -0.223
GATACTGA | -0.0173
CGTTTACA | -0.0405
CCATCTAG | -0.0651

Sequence | PBM E-score
CTTGCTAA | -0.171
ACTCGGCG | 0.0415
AAAACCCT | -0.171
CCATTCAC | -0.0529
CCGGGGCA | -0.0637
CCATGGGA | -0.219
AGCCCCAT | -0.229
CTTCCGTC | 0.086
CCTGGGTA | -0.206
CATGAGAA | 0.0161
ACCAACCA | -0.0123
CGTCGTTC | 0.132
CAGGGACC | -0.24
AAGAAAGG | 0.0877
AGCTTCAG | -0.191
AGAAAATG | 0.163
GCTGAGCC | -0.251
CATGCGAG | -0.0901
ATCGAAGC | -0.184
ACAGGGAT | -0.154
CACACCGA | 0.013
ACATAACT | 0.108
GGTTGACA | -0.0731
CAGGTAAA | 0.177
CTAGCGAA | -0.211

Sequence | PBM E-score
AGATGAAA | 0.0508
CGGCCTAA | 0.0562
GGCGAGCC | -0.157
CGGTAACG | -0.0305
CAGACGCA | -0.179
CATCGATC | -0.0988
GATGGGAA | -0.204
CCTGAAGG | -0.351
GCACAAAC | -0.0612
CCCCAACA | -0.141
AGGTTAAG | -0.142
CGCCCCGA | 7e-05
AGTGCCGC | -0.159
CCAGTCGC | -0.123
ACCTACGA | 0.00986
CACTGATA | -0.0756
CCTCAGAA | -0.266
CAGGCCTA | -0.108
CGTAAGGA | -0.162
AGTTCCAG | -0.0562
GTGACGTA | -0.0724
AGAGTTCG | 0.162
